Laboratory results reported in PubChem BioAssay AID1508624 (National Center for Advancing Translational Sciences (NCATS), 2021).
Hit rate of the full screen: of about 48,000 compounds, about 120 (0.25%) were called active. Another 4% or so got no clear call; they are omitted. The call rests on the fitted dose curve; in most records, active means well fitted activation curve with a large enough effect; inconclusive means small, poorly fitted or top-dose-only effect, or another doubt; inactive means no such curve, though single readings can be large or run the other way. This is one part of the list.

Assay: Primary qHTS for Identification of Small Molecule Activators of Huntingtin-Antisense Promoter Activity; further: nearly all actives have a fitted effect of over 55% in size
Settings: HEK293 HTT-AS promoter firefly luciferase reporter, 24 h; series mostly up to 57.5 µM; activity change, positive = activation: at the top concentration
Method in brief: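 HEK293 cells carrying firefly luciferase reporters were seeded at 2,500 per well in Opti-MEM and cultured for 24 h. They were then treated with compounds at up to 57.5 uM final for 24 h at 37 degrees C before Dual-Glo luminescence readout.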

Activity change, positive = activation, inactive:
CCOc1ccccc1CNC(=O)C1CCN(Cc2cc3ccccc3n2Cc2ccccc2)CC1 -20.5%, Cc1ccc2oc(C(=O)Nc3ccc(S(=O)(=O)Nc4ncccn4)cc3)cc(=O)c2c1 16.3% [at 11.5 µM, percent change from vehicle, -100% = no light], CN(C)S(=O)(=O)N(CC(=O)NCCSc1ccc(Cl)cc1)c1ccccc1 -19.3%, CCC(C(=O)Nc1cc(OC)ccc1OC)n1nc(-c2ccccc2)c2c(c1=O)CCCC2 (configuration not stated) -45.7%, COc1cc2nc(NC(=O)c3ccc(S(=O)(=O)N4CCCC4)cc3)sc2cc1OC -16.2%, O=C(COCc1cc(-c2ccc3c(c2)OCO3)on1)N1CCN(c2cccc(C(F)(F)F)c2)CC1 -21.1%, CCCS(=O)(=O)c1nc(S(=O)(=O)c2ccc(C)cc2)c(NC(C)c2ccccc2)s1 (configuration not stated) -19.2%, Cc1cc(C)c2oc(C(=O)Nc3nc4ccc(Cl)cc4s3)cc(=O)c2c1 -12%, Cc1cccc(Cn2c(SCc3ccc(C(=O)NCc4ccccc4F)cc3)nc3cccnc32)c1 -28.1%, Cc1ccc(-n2ccnc(NCc3cccs3)c2=O)cc1C -10.4%, COc1cccc(NS(=O)(=O)c2ccc3[nH]cc(C(=O)NCCc4ccc(C)cc4)c(=O)c3c2)c1 -35.7%, CN1C(C(=O)NC(C)(C)C)=CC(c2ccc3c(c2)OCO3)=NS1(=O)=O -16%, COc1ccccc1C(=O)NCCc1csc(-c2ccc(C(F)(F)F)cc2)n1 -37.5%, COc1cc(NC(=O)Cn2c(=O)n(CC3CCCO3)c(=O)c3cc(OC)c(OC)cc32)cc(OC)c1 (configuration not stated) -12.7%, CCOCCc1nn2c(=O)cc(COC(=O)c3ccc(NC(=O)c4ccc(F)cc4)cc3)nc2s1 -14.1%, CCc1ccc(C2CC(=O)N(c3cccc(C(F)(F)F)c3)C3=C2C(=O)OC3)cc1 (configuration not stated) -29.1%, Cc1ccc(C)c(NC2=C(c3ccc(C(F)(F)F)cc3)C(=O)c3ccccc32)c1 -24.8%, CC[C@H](C)C(=O)O[C@H]1C[C@@H](C)C=C2C=C[C@H](C)[C@H](CC[C@@H]3C[C@@H](O)CC(=O)O3)[C@H]21, CC(=O)N1CCc2cc(CNC(=O)Nc3ccccc3C(F)(F)F)ccc21 4.86%, Cc1cccc(Cn2nnc3c(=O)[nH]c(C4CCCN(C(=O)c5ccc(C(C)(C)C)cc5)C4)nc32)c1 (configuration not stated) -32.6%, COc1ccc2c(CNC3CCC(C)CC3)c(C(=O)O)n(Cc3ccccc3)c2c1 (configuration not stated) -23%, Clc1ccc(C(Cn2ccnc2)OCc2ccc(Sc3ccccc3)cc2)c(Cl)c1 (configuration not stated), CN(C(=O)NCc1noc2ccccc12)c1cccc(Cl)c1 -13.5%, COc1ccccc1NC(=O)C1=C(C)Nc2nc(SCc3ccccc3Cl)nn2C1c1cccnc1 (configuration not stated) -6.77%, CCCN1C(C(=O)c2ccccc2)=C(OC(=O)C(C)(C)C)c2ccccc2S1(=O)=O -39.9%, Cc1ccc(NC(=O)CN2CCN(C3CCCCC3)C(=O)C2=O)cc1C 6.08%, CCOC(=O)C1CCN(C(=O)Cn2nc(CC)n3c(cc4occc43)c2=O)CC1 -9.8%, Cc1cc(Cl)ccc1NS(=O)(=O)c1cc2[nH]c(=O)c(=O)[nH]c2cc1C -14.4%, Cc1ccc(-n2c(=O)[nH]c3sc4c(c3c2=O)CCNC4)cc1C -14.9%, COc1ccc(CN2C(=O)c3ccccc3C2C(=O)NC2CCCCCC2)c(OC)c1 (configuration not stated) -41.8%, CCC(=O)N1CCc2cc(S(=O)(=O)NCCC(=O)Nc3cccc(SC)c3)ccc21 0.275%, O=C(COc1ccccc1F)Nc1ccc2nc(SCc3ccccc3)sc2c1 10.1%, COc1ccc2oc(=O)c(-c3nc4ccc(C)cc4[nH]3)cc2c1 7.76%, Cc1ccc(-n2ncc(C(=O)N3CCN(c4cccc(C)c4C)CC3)c2C2CCNCC2)c(C)c1 -9.98%, CCOC(=O)c1cc(-c2ccc(F)cc2)n(CCC(=O)NCc2ccc(C)cc2)c1C -28.9%, COc1ccc(Br)cc1CC1C(=O)Nc2ccccc21 (configuration not stated) -51.3%, Cc1ccc(Cl)cc1N1CCN(C(=O)c2cn(C)c3ccc(S(=O)(=O)N4CCCC4)cc3c2=O)CC1 4.3% [at 11.5 µM, percent change from vehicle, -100% = no light], CCOc1ccc(-n2ccnc2SCC(=O)Nc2ccc(OC)cc2OC)cc1 -18.9%, COc1ccccc1N1CCN(C(=O)c2cc3c(=O)n(Cc4cccnc4)ccc3nc2C)CC1 -12.1%, O=C(Cn1c(=O)n(-c2ccccc2)c(=O)c2c3c(sc21)CCCC3)Nc1ccc(F)cc1 -13.1%, Cc1ccccc1OCC(=O)Nc1nnc(S(=O)(=O)N(C)c2ccccc2)s1 -18.3%, CCN1CCN(c2ncc3c(n2)CCN(Cc2ccc(C)s2)C3)CC1 -12.4%, Oc1cccc2[nH]ccc12 4.1%, Cc1cccc(CCNC(=O)c2nc(-c3ccc(Cl)cc3)n3c2CCCCC3)c1 -15.7%, COc1ccc(Br)cc1CNC(=O)c1cc2c(=O)n(C)c3ccccc3c2s1 -8.09%, CCn1c2c(c(=O)n3ncc(C(=O)Nc4ccc(F)c(Cl)c4)c13)CN(Cc1ccc(OC)cc1)CC2 -5.51%, CN(C)[C@@H]1C(=O)C(C(=O)NCN2CCCC2)=C(O)[C@@]2(O)C(=O)C3=C(O)c4c(O)cccc4[C@@](C)(O)C3C[C@@H]12 (some centres not stated) -6.22%, CC(C)CC(=O)N(Cc1ccccc1)S(=O)(=O)c1ccc2c(c1)oc(=O)n2C -35.4%, CCOc1ccc(C(=O)OCc2cc(=O)n3nc(C(C)C)sc3n2)cc1 5.01%, CO/N=C(/C(=O)N[C@@H]1C(=O)N2C(C(=O)[O-])=C(C[n+]3ccn4ncccc43)CS[C@H]12)c1nsc(N)n1 0.2%, COc1cccc(NC(=O)CN2C(=O)C3(SCC(=O)N3c3cc(C)cc(C)c3)c3ccccc32)c1 (configuration not stated) -26.3%, Cc1ccc(CN2C(=O)N(c3ccc(C)c(Cl)c3)S(=O)(=O)c3ccccc32)cc1 -27.2%, Cc1ccc(NC(=O)C2CCN(S(=O)(=O)c3c(C)noc3C)CC2)cc1C -5.85%, COC(=O)c1cc2oc(C)cc2n1Cc1ccc(Cl)cc1 11.8%, CCOc1ccc(CNC(=O)c2cnc(SC)nc2C)cc1 -27%, COC(=O)c1c(-c2cccs2)csc1NC(=O)COc1ccc(C(C)C)cc1 -24.8%, CCOC(=O)C1CCN(C(=O)c2nn(-c3ccc(C)cc3)c(=O)n(C)c2=O)CC1 -10.4%
